# T1: PDGFβ receptor (rat (endogenous in CA1 hippocampal …, UniProt Q05030 32-1097))
# T1 construct: PDGFβ receptor, endogenous in CA1 hippocampal slices of day 14-22 Wistar rats; also called platelet derived growth factor β receptor; PDGF receptor; source: endogenous, lysate of rat CA1 hippocampal slices
# T1 sequence (looked up): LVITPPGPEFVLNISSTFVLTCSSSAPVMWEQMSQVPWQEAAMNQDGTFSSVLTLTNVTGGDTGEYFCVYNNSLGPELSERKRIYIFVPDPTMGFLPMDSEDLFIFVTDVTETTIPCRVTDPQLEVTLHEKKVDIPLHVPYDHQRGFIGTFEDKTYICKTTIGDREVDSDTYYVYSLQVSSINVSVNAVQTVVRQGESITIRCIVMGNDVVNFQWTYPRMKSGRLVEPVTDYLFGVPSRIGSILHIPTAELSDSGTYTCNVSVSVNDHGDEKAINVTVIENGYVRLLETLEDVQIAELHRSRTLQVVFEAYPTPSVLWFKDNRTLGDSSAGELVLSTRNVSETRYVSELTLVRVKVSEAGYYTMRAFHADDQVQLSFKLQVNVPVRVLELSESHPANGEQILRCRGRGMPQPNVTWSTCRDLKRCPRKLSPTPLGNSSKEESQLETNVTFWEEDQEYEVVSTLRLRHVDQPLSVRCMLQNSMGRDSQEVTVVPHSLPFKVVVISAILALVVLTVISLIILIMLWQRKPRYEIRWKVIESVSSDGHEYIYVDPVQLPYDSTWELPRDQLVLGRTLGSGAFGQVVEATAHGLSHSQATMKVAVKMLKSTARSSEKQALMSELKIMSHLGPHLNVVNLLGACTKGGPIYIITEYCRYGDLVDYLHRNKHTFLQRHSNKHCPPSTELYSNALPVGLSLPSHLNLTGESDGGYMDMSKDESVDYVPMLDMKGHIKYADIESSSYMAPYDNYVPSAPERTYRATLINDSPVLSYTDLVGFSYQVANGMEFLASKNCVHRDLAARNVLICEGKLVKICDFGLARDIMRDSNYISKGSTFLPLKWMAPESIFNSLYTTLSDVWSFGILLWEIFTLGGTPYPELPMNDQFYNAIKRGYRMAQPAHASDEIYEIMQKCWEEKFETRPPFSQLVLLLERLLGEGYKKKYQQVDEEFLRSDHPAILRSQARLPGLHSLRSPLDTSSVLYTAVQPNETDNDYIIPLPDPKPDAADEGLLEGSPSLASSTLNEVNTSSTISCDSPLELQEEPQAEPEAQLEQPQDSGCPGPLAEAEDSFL
# Target: T1, PDGFβ receptor
# Test: co-IP; lysate of rat CA1 hippocampal slices (incubated 10 min without or with 10 ng/mL PDGF-BB), 1% NP-40 buffer; anti-PDGFβ receptor antibody precoupled to agarose beads; blot with anti-Abl
# Conditions: partners not purified
binder,measurement,value
"Abelson tyrosine kinase (enzyme, Abelson tyrosine kinase (Abl), endogenous in CA1 hippocampal slices of day 14-22 Wistar rats; The bought active mouse Abl kinase (Upstate) was used only for electrophysiology, not in the co-immunoprecipitations; also called Abl; Abl kinase; source: endogenous, lysate of rat CA1 hippocampal slices) not shown","Abl immunoreactivity in PDGF receptor antibody pull-down after PDGF-BB, fold vs. control",0.65 fold vs. control
